Sequences with one replicate were seen in a single cluster, so their values are uncertain.
Tested on: ATP
Experiment: switch fluorescence ratio, 500 uM ATP over buffer (Cy3 cluster intensity, sum of 5 cycles each) (fold (ratio)); higher = stronger signal-on switching upon ATP binding; sequences stand for … in TCGTCGGCAGCGTCAGATGTGTATAAGAGACAGTTTTTTTTTTTTTTTTTTTTTTTTT…TC
Conditions: aptamer strand: ATP DNA aptamer (quencher-CACCTGGGGGAGTATTGCGGAGGAAGG + anchor), 100 nM annealed; ATP concentration: 500 uM; one replicate
Outline: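 Per cluster, summed Cy3 intensity from the target cycles was divided by that from the buffer cycles to give the fluorescence ratio, then averaged per switch-domain sequence. Clusters outside 100-1000 RFU were excluded. The Cy3-labelled switching-strand clusters, on a modified Illumina MiSeq flow-cell, were annealed to 100 nM quencher-labelled ATP aptamer and imaged in selection buffer, then after 15 min with 500 uM ATP at 22 °C, for five cycles with NaOH stripping and re-annealing between them.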
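Note: ATP exposure 15 min at 22 °C before imaging.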

Sequence | switch fluorescence ratio
GAGACCCGGT | 1.02
TAATTGACCT | 1.13
GGAGTAAGCC | 1.05
CAGAAAACGT | 1.04
CAATCAAAGT | 1.01
ATTAGGTTCC | 1.06
TTCACTTTTA | 1.01
TAATTAGGA | 1.01
AACGGGAGGC | 1.05
TCGGTATAGA | 1.01
GGCGTGTCTA | 1.01
CCAGTGATTC | 1.12
AGAGTTCATT | 1.01
TAACAAGATC | 1.02
AATGGTGCCG | 0.998
GTCGTCGCTC | 1.01
TCGGGTCTTG | 1.04
TATGGGACTT | 1.06
TGCGTCACTT | 1.03
GGACGCTGGT | 1.09
CCAGTCCTGT | 0.97
GCATAGAGTG | 1.02
AGGGTTTGTC | 0.982

Sequence | switch fluorescence ratio
GATTATTGA | 1.02
TCGATAGAGC | 0.998
GCTAGTGTTG | 1.02
CATCCAGCTA | 5.86
ATACCGGGTC | 1.02
TGTCATAGTA | 0.967
TTTGGCGCCG | 0.964
CTAGTGTCGT | 0.951
AAATATATTT | 1.03
TCTTAAACC | 1.02
CTAACGAGCG | 1.03
TGTCATCAA | 0.96
TGTGTGAGCA | 0.994
ACGGACCAGT | 1.29
CTGGAAGGAT | 0.996
CATGGAAAG | 1.04
GGATGTGATG | 0.986
ACGTGTGAGG | 1.03
AAGTGGATTC | 0.988
AGGAGAACCC | 1
ACGCATACAA | 1.82
GGTGTAGCAA | 1.64
GACATAGCAC | 3.19

Sequence | switch fluorescence ratio
ATGTGGCCCC | 0.984
ACCAAGGGCA | 1.04
CCTATGTCGC | 1.03
GGCAGAGCCG | 0.952
TACACGGGTG | 1.3
GGCGTCTGTA | 0.97
CCCGTGCGTT | 1.01
CTTCCTGATT | 1.01
TCTTCCTTGT | 1.09
GCTCTTATGC | 1
TCAGCATGGA | 1.05
TAGTGTTAAG | 0.986
CCATACGGGT | 1.02
GGACGTGAGG | 0.957
ATCTATATG | 1
CGTCCTTT | 0.958
CGAGTTACTG | 1.03
ACCGACGAC | 3.59
AAGACTCGAA | 1.07
TATATGCCT | 0.961
GGGGAGCACA | 1.01
TCAAGGCAT | 1
TCTAGTTCAG | 1.04

Sequence | switch fluorescence ratio
GCGAAATTAG | 1.06
CCGGTGGAG | 1.01
ATCCTCATAT | 1.01
TTTAATTAGA | 0.991
GCATCAGATG | 0.982
TATCAAAGCT | 1.09
GGGTCGCAGG | 1.07
AAGCTGGAGA | 1.06
ACCGCTCTGA | 1.07
ACCCGATAAA | 1.03
TAGTAGGCAG | 1.04
ACGTTCTTTT | 0.972
ACTAGGTGGT | 1.08
ACGATGGGGT | 1.03
TGATAGTAC | 1.07
AGCCGGAGAG | 0.992
GTGGGTCATG | 1.02
GCTGTGGACA | 0.988
AGTAACGAAT | 1.03
TTAATATTG | 0.986
CCTCTGGGGT | 1.57
TTTTAAGTTA | 1.03
AAACTAAAGG | 1.02

Sequence | switch fluorescence ratio
GATGTCCTAT | 0.993
GTGTCCACGG | 0.915
GTTGTGCAAC | 1.02
GTTTGACCAT | 0.989
GGCGGTTACG | 0.997
GCAGTAGGAT | 0.982
TTGAGTCTTT | 1.03
GACTGAAAAC | 1.19
GGGACGGTTG | 0.989
AGGCCTTCCG | 1.89
GCCTGCCGTG | 1.02
ATGGGCAGAC | 1.21
ATCGAGACTA | 1.04
TAGGCTGAGT | 0.947
TGGATTACCG | 1.02
AAATAGAGGG | 1.02
CCAAGGTTTT | 0.989
AATGTCCATA | 1.05
AATGGGAGGA | 1.05
TGCCGACCGA | 1.04
AGCGGTAATC | 1.03
CAGTTTGATA | 0.994
AGGTGCGA | 1.09

Sequence | switch fluorescence ratio
TTATGGGTGT | 1.09
TAAAGGGAGG | 1.01
GGCACAGTTA | 0.993
GGTTATTACG | 1.02
GCTGCTGTAC | 3.17
CCATTAGTTC | 0.974
TATTCGATAT | 1.07
ATAGGACGTC | 1.02
GAGTACTGTG | 0.951
TATGTACTGC | 1.07
GAAATGCAAT | 1.75
TCCAGTTGG | 0.979
AAGAGTGTT | 1
CTAAGTAGGG | 1.03
TGGTGTGTGT | 0.985
GCAAATCGGC | 0.99
CAAAGAGAGG | 1.01
TAAGGAGGGC | 1.09
GGCTAAAGG | 0.967
GGATGTAATA | 0.999
CCGATATGCG | 1.02
CGTGCGTTGA | 0.998
TGGCCCTGGG | 0.973

Sequence | switch fluorescence ratio
ACGTCCGTC | 1.08
ACTTTTCGTG | 0.997
CTTAACTTTG | 1.02
AAGATACCCG | 1.02
AGAGAGTGTG | 1.01
ACTCTCAGGA | 1.1
CGGAATCCAA | 0.997
AGGGGTGAAG | 1.01
TTAGTGTATT | 0.973
GATCAACCGT | 0.963
GGTGGCATCG | 0.974
GCGGGGTG | 1.03
AGTTCGGGTA | 1.02
ACTAATCGCC | 1.02
GGCGGGTTAT | 1.24
AATATAAAAT | 0.989
ACCAATTTCC | 1.15
CGTTACAAGT | 0.983
CTAGCAAAGT | 1.06
TATATTGTG | 0.998

— the supplement of paper PMC10126150
